{"source": "PubChem BioAssay AID624202", "about": "(National Center for Advancing Translational Sciences (NCATS), 2012)", "note": "Screen size: about 380,000 compounds; about 4,000 (1.1%) were called active. Inconclusive means that the source gave no clear call. Such entries were picked first, then a sample of the others. Calls come from the whole dose curve; as a rule, active = well fitted activation curve with a large enough effect; inconclusive = small, poorly fitted or top-dose-only effect; inactive = no such curve, though single readings can be large or run the other way. A potency beside an inconclusive call is a rough fit, not a confirmed value. Potency is the fitted concentration of half-maximal effect; tags give direction and shape of the fitted curve."}
{"assay": "qHTS Assay to Identify Small Molecule Activators of BRCA1 Expression; note: nearly all actives have a fitted effect of over 80% in size", "conditions": "MCF7-BRCA1-FFLuc reporter, luminescence, 48 h; activation: at 46.1 µM (top of the series), scaled: vehicle 0%, 10 µM genistein 100% unless noted", "excerpt": "Functionally, BRCA1 has been implicated in a wide array of cellular activities, including DNA damage repair, cell-cycle checkpoint control, growth inhibition, apoptosis, transcriptional regulation, chromatin remodeling, protein ubiquitylation, and mammary stem cell self-renewal and differentiation. Reduction in BRCA1 levels is associated with an increase in tumor growth and resistance to anti-estrogenic agents, such as tamoxifen, while an increase in BRCA1 expression leads to cell growth arrest and apoptosis. […] The frequent loss of BRCA1 expression in invasive breast cancers in the absence of somatic mutation has been attributed to numerous mechanisms, including hypermethylation of the BRCA1 promoter, exaggerated ubiquitylation of BRCA1 protein, and improper intracellular localization. […] Basal-like breast cancers (BLBCs) are associated with an aggressive clinical course, resistance to chemotherapy, and typically lack expression of estrogen receptor (ER), progesterone receptor (PR), and epidermal growth factor receptor 2 (HER2). BLBCs account for 10-17% of all breast cancers, have few therapeutic options, and are considered the biggest unmet need in the treatment of breast cancer. Conversely, tumors which maintain expression of functional BRCA1 are almost uniformly luminal type cancers, and are accordingly associated with more indolent clinical courses, responsiveness to endocrine therapies, and improved survival.\nAs such, it is possible that an increase in BRCA1 expression would enable cellular differentiation and restore tumor suppressor function, resulting in delayed tumor growth and less aggressive, more treatable breast cancers. The long term goal of this proposal is to develop a novel prevention or therapeutic agent for breast cancer patients. To accomplish this goal, the overall objective of this proposal is to access the resources provided by the NIH Molecular Libraries Roadmap Initiative and the Molecular Libraries Probe Production Centers Network (MLPCN) to discover and develop new chemical activator probes that will increase BRCA1 expression and function.\nNIH Molecular Libraries Probe Production Network [MLPCN]\nNIH Chemical Genomics Center [NCGC]\nPI Name: Lisa Harlan-Williams, University of Kansas Medical Center\n5microl of MCF7-BRCA1-FFLuc cell suspension (400 cells/microl in phenol-red free MEM) are dispensed into Greiner white solid bottom 1536-well assay plates, yielding a final well density of 2000 cells/well. Plates are incubated for 2 hours at 37 degrees C in 5% humidified CO2 to allow cell attachment. Compounds are then transferred via Kalypsys pin tool equipped with 1536-pin array (10nl slotted pins, V&P Scientific, San Diego, CA). The plates are then incubated at 37 degrees C in 5% humidified CO2 for 48 hours. The NCGC in-house luciferase substrate reagent, Buglite, is then added (2.5microl) and plates incubated for 15 minutes, before being transferred to a ViewLux high-throughput CCD imager (PerkinElmer) wherein single end-point measurements of luminescence are acquired using a clear filter. The positive control compound, genistein, will be pinned into dedicated control columns on each plate, including a 16-point 1:3 titration in duplicate, as well as a 10microM maximum activation control, allowing for the normalization of screening activity. DMSO will be pinned into a separate column as a negative control.\nAll screening operations will be performed on a fully integrated robotic system (Kalypsys, San Diego, CA) containing one RX-130 and two RX-90 anthropomorphic robotic arms (Staubli, Duncan, SC). Library plates will be screened starting from the lowest and proceeding to the highest concentration. Vehicle-only plates, with DMSO being pin-transferred to columns 5-48, will be inserted uniformly at the beginning and the end of each library in order to monitor and record any shifts in the background, which can be affected by reagent dispensers or loss in enzyme activity over time. […]"}
{"smiles": "CC(C)CCOc1ccc(C2CC(=O)N(C)C2=O)cc1", "note": "(stereo unspecified)", "Potency": "inconclusive: 35.5 µM [activator, single point]"}
{"smiles": "COc1ccc(Cn2c(C3CC3)nc3ccc(NC(=O)c4ccco4)cc3c2=O)cc1", "Potency": "inconclusive: 2 µM [activator, partial curve, poor fit]"}
{"smiles": "Cc1nc(-c2ccccc2)sc1C(=O)O", "Potency": "inactive"}
{"smiles": "NC(=O)c1ccccc1NC(=O)CCCc1ccccc1", "Potency": "inconclusive: 4.47 µM [activator, partial curve, poor fit]"}
{"smiles": "CCCCC(=O)NC(=S)Nc1nnn(CCC)n1", "Potency": "inactive"}
{"smiles": "CCN(CC)c1ccc(N=Nc2nn(C)c(C)c2[N+](=O)[O-])cc1", "Potency": "inconclusive: 1 µM [activator, full curve, poor fit]"}
{"smiles": "O=C(N/N=C/c1cc(Br)c(O)c(Br)c1)c1cccc(C(F)(F)F)c1", "Potency": "inactive"}
{"smiles": "C/C(=N\\NC(=O)c1ccn(C)n1)c1ccc(NC(=O)c2cccc(F)c2)cc1", "Potency": "inconclusive: 17.8 µM [activator, partial curve, poor fit]"}
{"smiles": "COc1cc([N+](=O)[O-])ccc1NC(=O)Cc1ccc(F)cc1", "Potency": "inactive"}
{"smiles": "O=C(O)CC1(CC(=O)Nc2ccc(C(F)(F)F)cc2)CCCC1", "Potency": "inactive"}
{"smiles": "COCC(C)NC(=O)c1noc2c1CCc1cc(OC)ccc1-2", "note": "(stereo unspecified)", "Potency": "inconclusive: 14.1 µM [activator, partial curve, poor fit]"}
{"smiles": "Cc1ccccc1CN1CCN(c2nc3ccccc3s2)CC1", "Potency": "inconclusive: 2.82 µM [activator, full curve, poor fit]"}
{"smiles": "COc1ccc(N2C(=S)NC3N2C(=S)NC3(C)c2ccccc2)cc1", "note": "(stereo unspecified)", "Potency": "inconclusive: 25.1 µM [activator, single point]"}
{"smiles": "COc1cccc2cc(C(=O)NCCc3ccccc3)oc12", "Potency": "inconclusive: 7.08 µM [activator, partial curve, poor fit]"}
{"smiles": "O=C(Cc1cccs1)N/N=C/C=C\\c1ccccc1[N+](=O)[O-]", "Potency": "inconclusive: 12.6 µM [activator, partial curve, poor fit]"}
{"smiles": "Cc1ccc(-c2cc3onc(-c4ccccc4)c3c(=O)n2C)cc1", "activation": "inconclusive: 174% [activator]"}
{"smiles": "COc1ccc(-c2cc(C(=O)NC(C)C)no2)cc1", "Potency": "inconclusive: 1.26 µM [activator, full curve, poor fit]"}
{"smiles": "CN(C(=O)c1ccccc1)c1nc2ccccc2s1", "Potency": "inconclusive: 0.501 µM [activator, full curve, poor fit]"}
{"smiles": "O=C(Nc1ccccc1Cl)c1ccc2nsnc2c1", "Potency": "inconclusive: 2.82 µM [activator, full curve, poor fit]"}
{"smiles": "COc1ccc(/C=C/c2nnc(NC(=O)COc3ccccc3)s2)cc1", "Potency": "inconclusive: 5.01 µM [activator, partial curve, poor fit]"}
{"smiles": "CCOc1nc(Nc2ccccc2F)nc(OCC)n1", "Potency": "inactive"}
{"smiles": "COc1cccc(CC(=O)Nc2ccc3nc(C)sc3c2)c1", "Potency": "inconclusive: 14.1 µM [activator, partial curve, poor fit]"}
{"smiles": "Cc1cccc(-n2cnc(C(=O)Nc3cccnc3)c2)n1", "Potency": "inconclusive: 1.41 µM [activator, full curve, poor fit]"}
{"smiles": "O=C(NCc1cccnc1)c1ccc(-c2cc3ccccc3oc2=O)cc1", "Potency": "inconclusive: 1.58 µM [activator, full curve, poor fit]"}
{"smiles": "CC(C)CCSc1nc(N2CCOCC2)c2c(c1C#N)CC(C)(C)OC2", "Potency": "inactive"}
{"smiles": "COC(=O)c1ccccc1NC(=O)CSc1n[nH]c(C)n1", "Potency": "inconclusive: 22.4 µM [activator, single point]"}
{"smiles": "O=C(CCSc1ccccc1)Nc1ccc(OCc2ccccc2)cc1", "Potency": "active: 11.2 µM"}
{"smiles": "O=C(Nc1cccc(-c2ccc(N3CCCCC3)nn2)c1)c1ccc(Br)o1", "Potency": "inconclusive: 0.631 µM [activator, full curve, poor fit]"}
{"smiles": "N/C(=N\\OCc1ccc([N+](=O)[O-])cc1)c1ccccn1", "activation": "inconclusive: -99.3% [activator]"}
{"smiles": "Cc1cccc(NC(=O)CCOc2ccccc2)c1", "Potency": "inconclusive: 35.5 µM [activator, single point]"}
{"smiles": "COCCNC(=O)c1ccc2c3n(nc2c1)-c1ccc(Cl)cc1CO3", "Potency": "inconclusive: 2.82 µM [activator, full curve, poor fit]"}
{"smiles": "O=C(NC(=S)Nc1ccc(Cc2ccncc2)cc1)c1ccccc1", "Potency": "inactive"}
{"smiles": "COc1ccc(OC)c(NC(=O)C2COc3ccccc3O2)c1", "note": "(stereo unspecified)", "Potency": "inactive"}
{"smiles": "Oc1ccccc1CNc1cnc2ccccc2c1", "Potency": "inconclusive: 25.1 µM [activator, single point]"}
{"smiles": "CC(=O)Nc1ccc(S(=O)(=O)NCC(=O)OCc2ccccc2)cc1", "Potency": "inactive"}
{"smiles": "O=C(Nc1cccc(S(=O)(=O)NC2=NCCCCC2)c1)c1cc(-c2ccccc2Cl)nc2ccccc12", "Potency": "inactive"}
{"smiles": "CC(=O)COc1ccc2c(c1C)O/C(=C\\c1ccco1)C2=O", "Potency": "inconclusive: 22.4 µM [activator, single point]"}
{"smiles": "Cc1nnc(Oc2ccccc2)c2ccccc12", "Potency": "inconclusive: 35.5 µM [activator, single point]"}
{"smiles": "O=c1[nH]ncc2c3ccccc3n(Cc3ccc(F)cc3)c12", "Potency": "inactive"}
{"smiles": "COC(=O)C(O)(NC(=O)NC(C)=O)C(F)(F)F", "note": "(stereo unspecified)", "Potency": "inactive"}
{"smiles": "O=c1[nH]c(SCc2ccccc2)nc2ccsc12", "Potency": "inconclusive: 20 µM [activator, partial curve, poor fit]"}
{"smiles": "S=c1[nH]nc(-c2cc(-c3ccccc3)n[nH]2)n1/N=C/c1ccc(Cl)c(Cl)c1", "Potency": "inactive"}
{"smiles": "O=C(Nc1sc2c(c1C(=O)O)CCCCC2)c1cccnc1", "Potency": "inconclusive: 8.91 µM [activator, partial curve, poor fit]"}
{"smiles": "O=C1OC(c2ccc3ccccc3c2O)(c2ccc3ccccc3c2O)c2ccccc21", "Potency": "inactive"}
{"smiles": "CC1CC(C)(C)NC(=S)N1CCCC(=O)NCc1ccccc1", "note": "(stereo unspecified)", "Potency": "inactive"}
{"smiles": "CCC(=O)c1ccc(OCc2ccc(C#N)cc2)cc1", "Potency": "active: 3.55 µM"}
{"smiles": "Cc1ccc(NCC(=O)c2ccccc2)cc1Cl", "Potency": "inconclusive: 35.5 µM [activator, single point]"}
{"smiles": "Cc1ccc(Cn2cc(-c3ccccc3)nn2)cc1", "Potency": "inconclusive: 17.8 µM [activator, single point]"}
{"smiles": "COC(=O)c1cc2c(=O)c3ccccc3oc2nc1/C=C/N(C)C", "Potency": "inactive"}
{"smiles": "CC(C)Cc1nn2cc(-c3cccc(Br)c3)nc2s1", "Potency": "inconclusive: 0.794 µM [activator, full curve, poor fit]"}
{"smiles": "Cc1cc(C(=O)COC(=O)c2ccc(NC(=O)CC#N)cc2)c(C)n1C1CC1", "Potency": "active: 4.47 µM"}
{"smiles": "CC(=O)N(C)c1ccc(/C=C2\\C=Cc3ccccc32)cc1", "Potency": "inconclusive: 0.501 µM [activator, full curve, poor fit]"}
{"smiles": "CN1CCN(/C=N/c2sc3c(c2C#N)CCCCC3)CC1", "Potency": "inconclusive: 2.51 µM [activator, full curve, poor fit]"}
{"smiles": "Nc1ccc2oc(C3CCCCC3)nc2c1", "Potency": "inconclusive: 11.2 µM [activator, partial curve, poor fit]"}
{"smiles": "CSCc1ccc(C(=O)NCCSc2ccc(Br)cc2)cc1", "Potency": "inconclusive: 14.1 µM [activator, partial curve, poor fit]"}
{"smiles": "O=C(Nc1ccn(CCCNCCN2CCOCC2)c(=O)n1)OCc1ccccc1", "Potency": "inactive"}
{"smiles": "Cc1[nH]n(C(N)=S)c(=O)c1N=Nc1ccc(Br)cc1", "Potency": "active: 4.47 µM"}
{"smiles": "Cc1ccc(CNC(=O)C2COc3ccccc3O2)cc1", "note": "(stereo unspecified)", "Potency": "inconclusive: 8.91 µM [activator, partial curve, poor fit]"}
{"smiles": "COC(=O)c1sc(-c2cccs2)cc1N", "Potency": "active: 12.6 µM"}
{"smiles": "N#Cc1c(-c2ccco2)nc(SCC(=O)Nc2cccc(Cl)c2)[nH]c1=O", "Potency": "inactive"}
{"smiles": "NC(=O)C1CC(=O)N(c2ccc(OCc3ccc(Cl)c(Cl)c3)cc2)C1", "note": "(stereo unspecified)", "Potency": "active: 10 µM"}
{"smiles": "COC(=O)c1cc(-c2ccc(C)cc2)n[nH]1", "Potency": "active: 10 µM"}
{"smiles": "O=[N+]([O-])c1ccc(/C=N/Nc2nc(-c3ccccc3)c3cc(Br)ccc3n2)o1", "Potency": "inactive"}
{"smiles": "C/C(=N/N=C/c1ccc(N(C)C)cc1)c1ccccc1", "activation": "inconclusive: 69.2% [activator]"}
{"smiles": "Cc1ccc(C(=O)Nc2ccc3c(c2)OCCO3)o1", "Potency": "inconclusive: 3.16 µM [activator, partial curve, poor fit]"}
{"smiles": "O=C(CCS(=O)(=O)c1ccccc1)Nc1ccc(Cl)cn1", "Potency": "inconclusive: 20 µM [activator, single point]"}
{"smiles": "CCC(C)(C)C1CCc2[nH]nc(C(=O)NC3CCCCC3)c2C1", "note": "(stereo unspecified)", "Potency": "inconclusive: 3.98 µM [activator, full curve, poor fit]"}
{"smiles": "CC1(C)Cc2nc3oc4c(=S)nc[nH]c4c3cc2CO1", "Potency": "inconclusive: 11.2 µM [activator, partial curve, poor fit]"}
{"smiles": "COc1ccc(NC(=O)c2cccc(NC(=O)C(C)C)c2)c([N+](=O)[O-])c1", "Potency": "inconclusive: 35.5 µM [activator, single point]"}
{"smiles": "Cc1ccc(C)c(N(C)C(=O)c2cc3c(=O)[nH]c4ccc(C)cc4c3s2)c1", "Potency": "inactive"}
{"smiles": "O=C(C1COc2ccccc2O1)N1CCc2ccccc21", "note": "(stereo unspecified)", "Potency": "active: 11.2 µM"}
{"smiles": "O=C(Nc1ccccc1C(=O)O)c1ccc(Br)o1", "Potency": "active: 14.1 µM"}
{"smiles": "COc1ccc(NC(=O)c2ccc3[nH]c(C)c(C)c3c2)cc1", "Potency": "inconclusive: 7.08 µM [activator, partial curve, poor fit]"}
{"smiles": "COc1ccccc1OCC(=O)Nc1cccc(-c2nnc(-c3ccco3)o2)c1", "Potency": "active: 5.01 µM"}
{"smiles": "c1ccc(CSc2ccc(-c3ccco3)nn2)cc1", "Potency": "active: 3.16 µM"}
{"smiles": "CC(Sc1ccc(Cl)cc1)C(=O)NCC(c1ccco1)N1CCCCC1", "note": "(stereo unspecified)", "Potency": "inactive"}
